Measurements published in the BET-seq Pho4 binding data (Le et al. 2018).
This is one part of the list. These are noisy estimates, calculated here from bound and input reads.

target: T1, Pho4 (S. cerevisiae) (UniProt P07270); assay: relative binding free energy (BET-seq); higher = weaker binding; settings: reference: library average
T1 sequence: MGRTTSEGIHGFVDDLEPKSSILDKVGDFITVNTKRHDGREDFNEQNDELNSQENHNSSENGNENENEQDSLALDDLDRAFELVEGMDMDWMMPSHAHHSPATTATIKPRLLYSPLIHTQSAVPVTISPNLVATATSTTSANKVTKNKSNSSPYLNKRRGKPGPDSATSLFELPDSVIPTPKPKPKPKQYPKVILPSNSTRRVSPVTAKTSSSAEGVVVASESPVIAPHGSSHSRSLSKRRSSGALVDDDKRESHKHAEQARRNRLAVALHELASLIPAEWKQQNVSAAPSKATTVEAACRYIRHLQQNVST

Sequence | relative binding free energy [kcal/mol]
TCATTCACGTGCGTTT | 0.21
GTGGGCACGTGCTAGC | -0.09
GGCGTCACGTGAGTAT | 0.17
AATGACACGTGATTTG | 0.07
AGGATCACGTGTCATT | 0.21
ATCGTCACGTGCAGGG | 0.03
GTTAGCACGTGCGGGT | -0.05
GTTGACACGTGGTGTC | -0.09
TATAGCACGTGTTTAA | -0.13
CAGGGCACGTGGAATG | 0
TTGGTCACGTGGGCCA | -0.03
AGCATCACGTGGCGGT | 0.07
AATGTCACGTGAAAGT | 0.24
GAGTACACGTGTTAGG | 0.01
GATGGCACGTGGAAAG | 0.13
AGCGTCACGTGGAGAG | 0.04
TCGGCCACGTGTATGG | -0.06
TTTCACACGTGTAGGG | 0.17
GTTGACACGTGGCTTT | -0.02
TTGTCCACGTGGAGAT | 0.21
GGTCACACGTGTGTGG | 0.16
TGGTTCACGTGGAGAC | 0.18
GCGGGCACGTGGGGAG | -0.12
CGAAGCACGTGAGGTG | 0.01
CGTTACACGTGCGGTT | 0.05

Sequence | relative binding free energy [kcal/mol]
CAGGTCACGTGTGGTT | 0.16
TTGGGCACGTGGCAAT | -0.03
GGTAGCACGTGTGTCG | 0.02
CTAGTCACGTGGTGCT | 0
TGGGACACGTGATATA | 0.04
TTGTTCACGTGGTCAG | 0.17
TTATGCACGTGTGGTA | -0.03
GTAGGCACGTGTAATA | -0.01
GACGTCACGTGAGTGT | 0.4
AGGGGCACGTGACAAT | 0.01
TTCTGCACGTGGTGCG | -0.17
TTGAGCACGTGTGCGG | -0.06
AAGTACACGTGGTTAA | -0.01
CGGGTCACGTGGGGCT | 0.01
ATGAGCACGTGTGTTG | -0.1
CGTTACACGTGTGGAA | 0.11
GTTTGCACGTGGTCGA | -0.11
CAGGGCACGTGGTCTG | -0.12
GTACTCACGTGTTGTT | 0.22
AGTATCACGTGGGGGA | 0.04
TGTCGCACGTGAATGA | 0.2
TGAAGCACGTGATCGT | 0.14
GTGGACACGTGCGGGA | 0
CATGGCACGTGGTAGT | -0.14
TTGAGCACGTGCATTG | -0.06

Sequence | relative binding free energy [kcal/mol]
GTTTACACGTGAACGT | 0.24
CATTGCACGTGATAGT | 0.01
GTGCACACGTGGAGGT | -0.03
GTTGCCACGTGGGCGT | -0.18
GACGGCACGTGTTCGG | -0.02
TAACGCACGTGTATGG | -0.01
TTGGGCACGTGGACGT | -0.13
TTTAGCACGTGGTTGC | -0.11
GGCCGCACGTGGAAGG | 0.07
TTCGACACGTGTAGGA | 0.11
GGCAGCACGTGTGGAG | 0.02
ATGATCACGTGTTGGT | 0.16
GTGTTCACGTGGCAAT | 0.33
ATTTGCACGTGATTCG | 0
CAGTTCACGTGGTTGT | 0.24
TTTATCACGTGAGGAG | 0.3
TGTAACACGTGAGGAG | 0.34
GGGATCACGTGGTCGG | 0.09
ATGAGCACGTGGGCGT | -0.27
GTCGTCACGTGGGGGC | 0
TCAATCACGTGTTGGG | 0.03
TCGTTCACGTGTGACG | 0.37
CCGTACACGTGTGGGT | 0.03
CGGAACACGTGGGTAG | -0.11
AAAGACACGTGGGAGT | -0.19

Sequence | relative binding free energy [kcal/mol]
TGTTCCACGTGAGGGT | 0.29
ATGGCCACGTGCTGGT | -0.14
TGTAACACGTGTCGTA | 0.07
TCTATCACGTGGCTGG | 0.13
AGCAGCACGTGGCGGG | -0.29
GAAATCACGTGGGGAG | 0.1
TATGTCACGTGCTCGT | -0.06
AGTATCACGTGGGTAT | 0.05
ACAAGCACGTGGTGGG | -0.23
TGCCTCACGTGGGGTT | 0.01
TGGTACACGTGTTGTC | 0.11
TTCAGCACGTGGTTGG | -0.07
TTGGGCACGTGCTGTG | -0.1
GTTAACACGTGTCTTG | 0.09
CTGTACACGTGAGTTA | 0.24
GGGTGCACGTGGAGGT | 0.04
TCACGCACGTGGTGGG | -0.22
AGGGTCACGTGTCTGG | 0.11
TTATTCACGTGGCGGT | 0.15
AAGTTCACGTGTATGG | 0.18
TAGGACACGTGTTTAG | 0.14
AGTATCACGTGGTTAC | 0.11
GTTCGCACGTGAGCGT | 0.21
GTTATCACGTGAGTGA | 0.31
AATATCACGTGGGTGA | -0.06

Sequence | relative binding free energy [kcal/mol]
GGGGACACGTGGGGGA | 0.03
GGTTGCACGTGTGTCA | 0.01
TTGTTCACGTGTGAAA | 0.22
TGCGCCACGTGTAGTT | -0.01
ATGTTCACGTGTGAAA | 0.28
CAGGTCACGTGGGGGC | 0.03
CGGGGCACGTGCGGTC | -0.12
GGGTTCACGTGATGGA | 0.48
TGCGTCACGTGAGGGA | 0.29
GCTCTCACGTGGTGGG | 0.28
GGTTTCACGTGTGAGG | 0.3
GGTGTCACGTGGAATT | 0.2
TCGTACACGTGATTGG | 0.09
ATTGTCACGTGTATCG | 0.09
AATGTCACGTGGCCGG | -0.06
TCAGTCACGTGCTGGG | 0.08
TTCTCCACGTGTGGGT | 0.09
AGCGGCACGTGAGGGT | 0.17
GTGTGCACGTGCCGTT | 0.01
TTTTGCACGTGATTAC | 0.15
GGGTGCACGTGTTGAT | 0.04
TTAATCACGTGTGTAG | 0.17
ATTGGCACGTGGGAAG | -0.11
AGAAACACGTGGAGGG | -0.15
TCAGGCACGTGAGATG | 0.13

Sequence | relative binding free energy [kcal/mol]
GGGCACACGTGGGCAT | 0.1
TAGAACACGTGTGCGG | 0.2
CTAGTCACGTGTGGTC | 0.22
AGTTGCACGTGCTAAG | 0.07
TAGCACACGTGTGGTG | -0.07
AGAGTCACGTGATCGG | 0.24
AAGGTCACGTGTGCTT | 0.09
GGTAACACGTGGGAGT | 0
GATGGCACGTGGGCGC | -0.14
AATAACACGTGGGTTG | -0.2
GCTGGCACGTGATGTT | -0.02
GTTTGCACGTGAGTAA | 0.21
TAAGCCACGTGAGGTG | 0.16
CGTAGCACGTGGTAAT | -0.12
TATGCCACGTGTCGGG | -0.09
TGTTTCACGTGTCTGT | 0.34
GGTCTCACGTGTTTTA | 0.21
GTAGGCACGTGAGTTC | 0.32
CTCGGCACGTGGTGTA | -0.15
TGTATCACGTGAGTAT | 0.25
CGTCACACGTGTGGTT | 0.16
